Common to all, as to assay: microbe, parasite or virus in culture
Common to all, as to type: cell-based

The subject of assay [1] is HCV genotype 1a (strain H77S.3). Particulars: Hepatitis C virus, Huh-7, read-out: EC50 GT 1a.
Assay [2] relates to HCV GT 1b (Con1) replicon. Particulars: Hepatitis C virus, GT1B.
For assay [3], the system named is wild-type HCV GT 1b full-length RNA (HCV-N.2-GLuc). Conditions: for EC50: Hepatitis C virus, GT1B, wild-type HCV-N.2-GLuc.

Consider `O=C1Cn2c(cc3cc(Cl)ccc32)C(=O)N1O` [Compound 30], for which, in assay [1], the EC50 was 2.79 ± 0.48 µM.
With `O=C1Cn2c(cc3cccc([N+](=O)[O-])c32)C(=O)N1O` [Compound 36], the EC50 was found to be 2.57 ± 0.34 µM in assay [1]; 3.13 ± 0.56 µM in assay [2] (Huh-5-2, DMSO-adapted Huh5-2 replicon cells, 30 passages); 11.5 ± 2.77 µM in assay [2] (Huh-5-2, Huh5-2 replicon cells adapted with Cmp 36 25xEC50, 30 passages); 3.04 ± 0.13 µM in assay [3] (Huh-5-2, cured DMSO-adapted cells); 3.53 ± 0.19 µM in assay [3] (Huh-5-2, cured cells previously adapted with 36 (25xEC50)). Further, the “36/DMSO EC50 ratio” value in assay [3] (cured 36-adapted vs cured DMSO-adapted cells) is recorded as 1.16.

For the origin of these results see publication PMC11360281 (Viruses, 2024).
